Hit rate of the full screen: of about 48,000 compounds, about 120 (0.25%) were called active. About 4% were inconclusive and are not listed. The call rests on the fitted dose curve; in most records, active means well fitted activation curve with a large enough effect; inconclusive means small, poorly fitted or top-dose-only effect, or another doubt; inactive means no such curve, though single readings can be large or run the other way. This is one part of the list.

Experimental findings from PubChem BioAssay AID1508624 (National Center for Advancing Translational Sciences (NCATS), 2021) are described below.

The nature of this assay: Primary qHTS for Identification of Small Molecule Activators of Huntingtin-Antisense Promoter Activity. Further: nearly all actives have a fitted effect of over 55% in size. Conditions: HEK293 HTT-AS promoter firefly luciferase reporter, 24 h; series mostly up to 57.5 µM; activity change, positive = activation: at the top concentration. In a few lines: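 Luminescence was read after Dual-Glo reagent and a 10 min room-temperature incubation. Values were normalized to vehicle (0% activity) and zero RLU (-100% activity). Reporter HEK293 cells had been exposed to compounds (up to 57.5 uM final) for 24 h.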
Background: qHTS replaces the single test concentration by a dilution series.
Take `Cc1cc(=O)c2cc(C(=O)Nc3cccc(C)c3C)ccc2[nH]1`: the “activity change, positive = activation” value was inactive: -27.6%.

For the molecule `C[C@H](NC(=O)[C@@H](O)c1cc(F)cc(F)c1)C(=O)N[C@@H]1C(=O)N(C)c2ccccc2-c2ccccc21`, the “activity change, positive = activation” value is inactive: -5.83%.

Regarding `CCCNc1ncnc2c1c(-c1ccccc1)cn2-c1ccccc1`, the “activity change, positive = activation” value was inactive: -20.8%.

Consider `CCS(=O)(=O)Nc1ccc2[nH]c(O)c(C(=Nc3ccc(CN4CCCCC4)cc3)c3ccccc3)c2c1`, for which the “activity change, positive = activation” value is inactive: -38.7%.

Turning to `CCn1cc(C(=O)N2CCN(c3cccc(C)c3)C(C)C2)c(=O)c2cc(S(=O)(=O)N3CCOCC3)ccc21` (stereo unspecified), the “activity change, positive = activation” value was inactive: -1.06%.

Take `COc1ccc(-c2nsc(NC(=O)c3oc4ccccc4c3C)n2)cc1`: the “activity change, positive = activation” value is inactive: -16.5%.

Turning to `Cc1coc2c(C)c3oc(=O)c(CCC(=O)N4CCCCC4)c(C)c3cc12`, the “activity change, positive = activation” value was inactive: -29.5%.

As for `O=C(Cn1ccc2cc(S(=O)(=O)N3CCCCCC3)ccc21)NCc1cccc(Cl)c1`, the “activity change, positive = activation” value was inactive: -30.6%.

Turning to `CN(C)c1ccc(CNC(=O)CCCN2C(=O)CCn3nc(-c4cn(C)c5ccccc45)cc32)cc1`, the “activity change, positive = activation” value is inactive: -16.3%.

As to `C[C@]12CC[C@@H]3c4ccc(O)cc4CC[C@H]3[C@@H]1CC[C@@H]2OC(=O)CCC1CCCC1`, the “activity change, positive = activation” value was inactive: 2.2%.

For `CCCN1CCN(CCCNC(=O)c2cc3c(s2)-c2ccccc2OC3)CC1`, the “activity change, positive = activation” value was inactive: -16%.

In the case of `COCCn1c(C)cc(O)c(C(c2ccccc2Cl)N2CCCCC2)c1=O` (stereo unspecified), the “activity change, positive = activation” value was inactive: -4.33%.

On to `Cc1c(NS(=O)(=O)c2ccc(Cl)cc2)c(=O)n(-c2ccccc2)n1C`, for which the “activity change, positive = activation” value is inactive: 1.3%.

As to `Cc1nc2c(c(C)c1CCC(=O)Nc1ccc(F)cc1)c(=O)n(C)c(=O)n2C`, the “activity change, positive = activation” value is inactive: -3.29%.

Regarding `COc1ccc(C2=NN(CCC(=O)NCCc3ccccc3)C(=O)CC2)cc1`, the “activity change, positive = activation” value is inactive: -7.69%.

Regarding `COc1ccccc1CCNC(=O)C(=O)NCC(c1cccnc1)N1CCN(c2ccccc2)CC1` (stereo unspecified), the “activity change, positive = activation” value was inactive: -43.8%.

Regarding `COCCn1c(C)cc(O)c(C(c2ccccc2F)N2CCN(c3ccccc3)CC2)c1=O` (stereo unspecified), the “activity change, positive = activation” value is inactive: -1.46%.

Take `CCc1cccc(-n2nnc(S(=O)(=O)c3ccc(OC)cc3)c2C)c1`: the “activity change, positive = activation” value is inactive: -33.6%.

In the case of `Cc1ccc(Cn2cc(CCC(=O)NCC(C)c3ccccc3)c3ccccc32)cc1` (stereo unspecified), the “activity change, positive = activation” value was inactive: -36.7%.

For the molecule `Cc1cccc(C)c1NC(=O)C1CCCN1S(=O)(=O)c1cccc2nsnc12` (stereo unspecified), the activity change, positive = activation is inactive: 3.07% [at 11.5 µM, percent change from vehicle, -100% = no light].

On to `COc1ccc(NC(=O)Cn2nnc(-c3nc(-c4ccncc4)no3)c2N)cc1OC`, for which the “activity change, positive = activation” value was inactive: 0.248%.

For the molecule `Cc1oc(-c2ccc(Cl)cc2)nc1CSc1nc2ncccc2[nH]1`, the “activity change, positive = activation” value was inactive: -24.2%.

`O=C(Nc1ccc2oc(-c3ccncc3)nc2c1)c1ccccc1Cl`: the activity change, positive = activation was inactive: 6.92% [at 11.5 µM, percent change from vehicle, -100% = no light].

On to `CCc1ccccc1Nc1nn2c(=O)c3ccc(C(=O)NCCCOC(C)C)cc3nc2s1`, for which the “activity change, positive = activation” value was inactive: -20.9%.

On to `COc1cccc(NC(=O)c2ccc(-c3nc(COc4ccccc4)c(C)o3)cc2)c1`, for which the “activity change, positive = activation” value was inactive: -14%.

Consider `O=C(OCc1cc(=O)n2nc(C3CCCCC3)sc2n1)c1ccc(F)cc1`, for which the “activity change, positive = activation” value is inactive: -2.17%.

Regarding `CCOc1ccc(NC(=O)c2sc3nc4c(c(-c5ccc(OC)cc5)c3c2N)C(=O)CC(C)(C)C4)cc1`, the “activity change, positive = activation” value was inactive: 0.147%.

Take `CCOc1ccc(-n2cc(-c3ccccc3)c3c(N4CCN(c5ccccc5OC)CC4)ncnc32)cc1`: the “activity change, positive = activation” value was inactive: -4.95%.

With `COC(=O)c1c(NC(=O)/C(C#N)=C/c2ccccc2)sc2c1CCC2`, the “activity change, positive = activation” value is inactive: -4.87%.

Take `COc1ccc(-c2noc(-c3cccnc3N3CCN(c4ccc(OC)cc4)CC3)n2)cc1`: the “activity change, positive = activation” value is inactive: -13.3%.

In the case of `O=C(Nc1cccc(Cl)c1)c1ccc2c(c1)CCN2S(=O)(=O)c1ccccc1`, the “activity change, positive = activation” value was inactive: -6.13%.

With `CCCCN(CC)C(=O)CSc1c2c(nc3ccc(Cl)cc13)CCCC2`, the “activity change, positive = activation” value was inactive: -31.4%.

With `CCOCCCNC(=O)CN1C(=O)COc2ccc(S(=O)(=O)N3CCCC3)cc21`, the “activity change, positive = activation” value was inactive: -13%.

Turning to `CCOC(=O)c1c(C)[nH]c(C)c1S(=O)(=O)N1CCCC(C(=O)NCc2ccc(Cl)cc2)C1` (stereo unspecified), the “activity change, positive = activation” value is inactive: -11.5%.

As to `COc1ccccc1Nc1cc(C(=O)NC2CCC(C)CC2)c2ccccc2n1` (stereo unspecified), the “activity change, positive = activation” value was inactive: -13.8%.

Take `CCn1c(CN2CCC(C)CC2)nc2cc(NC(=O)COc3ccc(Cl)c(C)c3)ccc21`: the “activity change, positive = activation” value was inactive: -41.4%.

On to `COc1cc(OC)c(NC(=O)CCc2c(C)nc3ncnn3c2C)cc1Cl`, for which the “activity change, positive = activation” value was inactive: -7.78%.

Take `COc1ccc(-c2nc(CSCC(=O)NCCc3ccccc3)c(C)o2)cc1`: the “activity change, positive = activation” value is inactive: -26.2%.

As to `N#Cc1c(C2CCNCC2)cc(-c2c(O)cccc2OCC2CC2)nc1N`, the “activity change, positive = activation” value is inactive: 8.94%.

On to `CCc1ccc(-n2c(SCc3ccccc3Cl)nc3[nH]ncc3c2=O)cc1`, for which the activity change, positive = activation is inactive: -5.03% [at 11.5 µM, percent change from vehicle, -100% = no light].

Turning to `COc1cccc(N2CCN(C(=O)c3cc4cc5cc(C)ccc5nc4s3)CC2)c1`, the “activity change, positive = activation” value is inactive: 8.5%.

As for `CCC(=O)N1c2ccccc2CC1C(=O)NCc1ccccc1Cl` (stereo unspecified), the “activity change, positive = activation” value is inactive: -0.452%.

As for `Cc1cccc(NC(=O)CCn2cnnn2)c1C`, the “activity change, positive = activation” value is inactive: 1.04%.

On to `Cc1cccc(NC(=O)Cn2cc(C(=O)c3ccco3)c3ccccc32)c1`, for which the “activity change, positive = activation” value is inactive: -16.1%.

As for `Cc1ccc(CNC(=O)c2ccc(Cn3c(=O)c4ccccc4n(CC(=O)Nc4ccc(C)cc4)c3=O)cc2)cc1`, the “activity change, positive = activation” value was inactive: -12.2%.

`O=C(NC1(C(F)(F)F)C(=O)Nc2c1c(=O)[nH]c(=O)n2-c1ccc(Cl)cc1)c1ccccc1F` (stereo unspecified): the “activity change, positive = activation” value is inactive: -5.14%.
